Assays:
CTLA-4 (BMS, Orencia) = CTLA-4 (BMS, Orencia) (human, UniProt P16410 38-152); assay: cell-based or functional assay
[1] = target: T1, CTLA-4 expressed on cells (CHO P4 cells with OX40 and CTLA4); HEK-CTLA4 cells; ADCC target cells; Jurkat … (Homo sapiens (Human), UniProt P16410 38-152); assay: flow cytometry on CHO P4 cells expressing both OX40 and CTLA-4, detection PE-conjugated anti-human IgG; the cells carry both targets of the bispecific
T1 construct: also called CTLA4 on CHO P4

[2] = target: T1, CTLA-4 expressed on cells (CHO P4 cells …); assay: cell-based or functional assay

Chain of CTLA-4 (BMS, Orencia) (P16410 38-152 limits assumed): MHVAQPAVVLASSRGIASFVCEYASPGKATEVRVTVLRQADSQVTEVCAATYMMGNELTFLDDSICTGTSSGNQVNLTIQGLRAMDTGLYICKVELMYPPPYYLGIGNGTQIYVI

Mean IL-2 level (pg/ml) induced at 1.5 nM bispecific antibody or control (CTLA-4 (BMS, Orencia)) | EC50 (read off the curve) [1] | Fold-induced ADCC (FcγRIIIa V158 Jurkat NFAT-luciferase reporter; target cells expressing both OX40 and CTLA4) [2] | Binder
4290 pg/mL | ~20 nM | ~123 fold | bispecific OX40-CTLA-4 antibody 1166/1261 (bispecific antibody, human IgG1, kappa) heavy: EVQLLESGGGLVQPGGSLRLSCAASGFTFGGYYMSWVRQAPGKGLEWVSAISGSGGSTYYADSVKGRFTISRDNSKNTLYLQMNSLRAEDTAVYYCARYDYASMDYWGQGTLVTVSS[sequence of human IgG1 constant region omitted] light: DIQMTQSPSSLSASVGDRVTITCRASQSISSYLNWYQQKPGKAPKLLIYAASSLQSGVPSRFSGSGSGTDFTLTISSLQPEDFATYYCQQYYWYGLSTFGQGTKLEIKRTVAAPSVFIFPPSDEQLKSGTASVVCLLNNFYPREAKVQWKVDNALQSGNSQESVTEQDSKDSTYSLSSTLTLSKADYEKHKVYACEVTHQGLSSPVTKSFNRGECSGGGGSGGGGSAPLKIQAYFNETADLPCQFANSQNLSLSELVVFWQDQENLVLNEVYLGKERFDSVDSKYMGRTSFDSDSWTLRLHNLQIKDKGRYQCIIHHKKPTGMINIHQMNSELSVLA
5110 pg/mL |  |  | bispecific molecule 1514/1581 (bispecific antibody, human IgG1, kappa) heavy: EVQLLESGGGLVQPGGSLRLSCAASGFTFGYYYMSWVRQAPGKGLEWVSGISSYGSYTYYADSVKGRFTISRDNSKNTLYLQMNSLRAEDTAVYYCARSGYSNWANSFDYWGQGTLVTVSS[sequence of human IgG1 constant region omitted] light: DIQMTQSPSSLSASVGDRVTITCRASQSISSYLNWYQQKPGKAPKLLIYAASSLQSGVPSRFSGSGSGTDFTLTISSLQPEDFATYYCQQGDYTLFTFGQGTKLEIKRTVAAPSVFIFPPSDEQLKSGTASVVCLLNNFYPREAKVQWKVDNALQSGNSQESVTEQDSKDSTYSLSSTLTLSKADYEKHKVYACEVTHQGLSSPVTKSFNRGECSGGGGSGGGGSAPLKIQAYFNETADLPCQFANSQNLSLSELVVFWQDQENLVLNEVYLGKERFDSVDSKYMGRTSFDSDSWTLRLHNLQIKDKGRYQCIIHHKKPTGMINIHQMNSELSVLA

From patent US20200048358A1 (ALLIGATOR BIOSCIENCE, published 2020)
